Screen size: about 340,000 compounds; about 530 (0.16%) were called active. The shares of active, inactive and inconclusive entries below differ from those in the screen. Cut-off read from the data, not from the text of the source: active = activity change below about -80%; inconclusive = between about -30% and that limit; inactive = weaker than that.
Assay: Small Molecules that selectively kill Giardia lamblia: qHTS;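 note: parasites exposed to compound for two days anaerobically before the ATP read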
Conditions: Giardia lamblia trophozoite viability; at 7.66 µM; active compounds read low
Outline: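 Compounds were tested on trophozoites seeded at 100 cells/well and held 48 hrs at 37 deg C anaerobically. An ATP-based luminescent kit measured the remaining live cells.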
For `CCOc1cc(N2CCOCC2)c(OCC)cc1NC(=O)COC(=O)c1ccccc1C`, the activity change was inactive: -17%. With `COc1cccc(-c2nc(-c3ccc4c(c3)NC(=O)CO4)cs2)c1` the activity change was inactive: 17.3%. With `CC(=O)Oc1ccc(C(=O)COC(=O)CNC(=O)COc2ccccc2C)cc1` the activity change was inconclusive: -36.9% [inhibitor]. With `C#CCn1c(=NC(=O)c2cccs2)sc2cccc(OC)c21` the activity change was inconclusive: -42.1% [inhibitor]. For `O=C1c2cc([N+](=O)[O-])ccc2-c2ncccc21`, the activity change was inconclusive: -31% [inhibitor]. For `CCOC(=O)c1c(CNc2ccncc2)n(C)c2cc(Br)c(O)cc12`, the activity change was inconclusive: -37.9% [inhibitor]. With `Nc1ccc(-c2nc3c(Cl)cc(N)cc3[nH]2)cc1` the activity change was inactive: 9.65%. For `O=C1CC(=O)Nc2cc(S(=O)(=O)N3CCN(c4ccc([N+](=O)[O-])cc4)CC3)ccc2N1`, the activity change was inconclusive: -34.1% [inhibitor]. With `Cc1[nH]c2ccccc2c1CCN(Cc1cccnc1)C(=S)Nc1cccc(F)c1` the activity change was inconclusive: -31% [inhibitor]. For `COc1ccc(C2/C=C\CN(C(=O)C3CCCCC3)C(C)C(=O)N2Cc2ccc(F)cc2)cc1` (stereo not given), the activity change was inactive: 5.94%. For `COc1ccc(NC(=O)Cn2nnc(-c3ccc(CN4CCOCC4)cc3)n2)c(OC)c1`, the activity change was inactive: -17.4%. With `N#Cc1cc2c(nc1SCC(=O)Nc1nccs1)CCCCC2` the activity change was inconclusive: -34.9% [inhibitor]. In the case of `C=CCc1ccc(OCCOCCOc2cccc3cccnc23)c(OC)c1`, the activity change was inconclusive: -32.4% [inhibitor]. In the case of `O=C(CSc1nnc(NC(=O)c2ccccc2)s1)NCc1ccco1`, the activity change was inconclusive: -57.7% [inhibitor]. With `O=C(Nc1cccc2ccccc12)c1ccc([N+](=O)[O-])s1` the activity change was active: -89.5%. With `N#Cc1cc(S(=O)(=O)c2ccc(F)cc2)c(N)[nH]c1=O` the activity change was inconclusive: -30.3% [inhibitor]. In the case of `O=C(/C=C/c1ccncc1)c1ccc2c(c1)OCCO2`, the activity change was inconclusive: -38.3% [inhibitor]. In the case of `O=C(CNc1ccc2ccccc2c1)N/N=C/c1ccc([N+](=O)[O-])o1`, the activity change was active: -90.9%. In the case of `CCN(c1ccccc1)S(=O)(=O)c1ccc(Cl)c(NC(=O)CN2C(=O)NC3(CCCC3)C2=O)c1`, the activity change was inactive: 9.88%. In the case of `CCOc1ccc(NC(=O)CN2CC(c3ccccc3)CC2=O)cc1` (stereo not given), the activity change was inconclusive: -33.6% [inhibitor]. For `COc1ccc(C(=O)c2c3ccc([N+](=O)[O-])cc3[n+]([O-])n2CCCN)cc1`, the activity change was inconclusive: -47.3% [inhibitor]. In the case of `O=C(Nc1ccc2c(c1)OCCO2)N1CCN(c2ccccc2)CC1`, the activity change was inconclusive: -40.4% [inhibitor]. For `CC1(C)CC(N=c2cc(-c3ccccc3)oc3ccc(Cl)cc23)CC(C)(C)N1`, the activity change was inconclusive: -79.5% [inhibitor]. With `O=C(O)CC1(CC(=O)NCc2ccccn2)CCCCC1` the activity change was inactive: 33.6%. For `Cc1ccc(O)c(N=Cc2cc(Cc3ccccc3)cc([N+](=O)[O-])c2O)c1`, the activity change was inactive: -6.3%. For `Cc1nccc(-c2cccc(NC(=O)c3ccccc3Cl)c2)n1`, the activity change was inactive: 6.78%. In the case of `O=C(Nc1cccnc1)c1cccc(-c2cc3ccccc3oc2=O)c1`, the activity change was inconclusive: -42.2% [inhibitor]. With `CCc1cc(=O)oc2c(C)c(OCC(=O)N3CCCc4ccccc43)ccc12` the activity change was inactive: -19.4%. In the case of `O=C(Nc1ccccn1)c1onc2c1CCCC2`, the activity change was inconclusive: -58.3% [inhibitor]. With `Clc1ccc(-c2nc3n(n2)Cc2ccccc2-3)cc1` the activity change was inconclusive: -36.9% [inhibitor]. In the case of `O=C(CCCOc1ccc(Cl)cc1Cl)N/N=C/c1ccccc1`, the activity change was inactive: 6.53%. In the case of `COc1cn(-c2ccccc2)nc1C(=O)Nc1ccccc1`, the activity change was inactive: 8.19%. With `O=C(O)CN1CCN(Cc2cccc(Cl)c2)C1=O` the activity change was inconclusive: -30.1% [inhibitor]. With `O=[N+]([O-])c1ccc(/C=N/n2cnc3ccccc32)s1` the activity change was inconclusive: -67.6% [inhibitor]. With `O=C(Cc1ccc(NC(=O)C2CCCN(C(=O)C3CC3)C2)cc1)Nc1cccc(C(=O)N2CCCC2)c1` (stereo not given) the activity change was inconclusive: -34.9% [inhibitor]. For `CCN(CC(=O)Nc1c(F)cccc1F)C(=O)/C=C/c1cn(Cc2ccccc2)nc1-c1cccnc1`, the activity change was inactive: -9.95%. With `CCN(CC(=O)NCc1ccc(F)cc1)C(=O)COc1ccccc1[N+](=O)[O-]` the activity change was inconclusive: -41.7% [inhibitor]. For `Cc1ccc(C2=NOC(C)(c3nnc(-c4ccc(F)cc4)o3)C2)cc1` (stereo not given), the activity change was inconclusive: -33.7% [inhibitor]. With `CC(Cc1ccco1)NC(=O)c1ccc(C(F)(F)F)cc1` (stereo not given) the activity change was inconclusive: -41.8% [inhibitor]. For `CCOC(=O)C1CCCN(CC(O)COC(c2ccccc2)c2ccccc2)C1` (stereo not given), the activity change was inconclusive: -31.6% [inhibitor]. With `Cc1[nH]c2ccc(F)cc2c1CCN(Cc1ccncc1)C(=S)Nc1ccc(F)cc1` the activity change was inconclusive: -33.8% [inhibitor]. With `NCc1ccccc1` the activity change was inconclusive: -33% [inhibitor]. With `COc1ccc(C2CC(c3ccc(C(F)(F)F)cc3)=NN2c2ccc(S(N)(=O)=O)cc2)cc1` (stereo not given) the activity change was inactive: -0.309%. In the case of `Cc1ccc(-n2c(C)cc(C(=O)COC(=O)c3ccc[nH]c3=O)c2C)cc1`, the activity change was inconclusive: -37.9% [inhibitor]. With `Cc1ccc2nc(CSc3nnc(-c4ccco4)n3-c3ccccc3)cc(=O)n2c1` the activity change was inactive: 22.1%. In the case of `OC(COc1ccc(OCc2ccccc2)cc1)CN1CCOCC1` (stereo not given), the activity change was inactive: -15.2%. In the case of `CC(=O)C1=C(C)Nc2ncnn2C1c1ccc(O)cc1` (stereo not given), the activity change was inconclusive: -31.3% [inhibitor]. For `Cc1nnnn1/C(=C\c1ccccc1)C(=O)OCC(=O)N(C)C1CCS(=O)(=O)C1` (stereo not given), the activity change was inactive: 4.89%. For `COc1ccc2cc1Oc1ccc(cc1)CC1c3c(cc(OC)c4c3Oc3cc5c(cc3O4)CCNC5C2)CCN1C` (stereo not given), the activity change was inconclusive: -73.7% [inhibitor]. For `Cc1ccc(NC(=O)c2nc[nH]c2C(=O)NCCN(CCNC(=O)c2[nH]cnc2C(=O)Nc2ccc(C)cc2)CCNC(=O)c2[nH]cnc2C(=O)Nc2ccc(C)cc2)cc1`, the activity change was inconclusive: -33.1% [inhibitor]. In the case of `CC(C)NC(=O)CSc1nc(-c2ccccc2)cs1`, the activity change was inconclusive: -31.2% [inhibitor]. For `CN(C)C(=O)CCc1ccc2c3c([nH]c2c1)[C@]1(C)[C@@H](C(=O)N2CCOCC2)C[C@H](CC(=O)NCCN2CCOCC2)C(=O)N1CC3`, the activity change was inconclusive: -30.8% [inhibitor]. For `O=S(=O)(NCC(c1ccc2c(c1)OCO2)N1CCN(c2ccccc2)CC1)c1ccccc1` (stereo not given), the activity change was inconclusive: -30.9% [inhibitor]. For `CCOC(=O)C1=C(CC)Nc2ccccc2N=C1NC(=O)Nc1ccc(Cl)c(Cl)c1`, the activity change was inactive: -3.55%. For `O=[N+]([O-])c1ccc(NCCCNS(=O)(=O)c2ccccc2)c(Cl)c1`, the activity change was inconclusive: -31.8% [inhibitor]. With `CCCCNC(=O)CN1C(=O)c2cccc(N)c2C1=O` the activity change was inconclusive: -38.6% [inhibitor]. For `Cc1ccc(-n2nnc(-c3nccn3C)n2)cc1`, the activity change was inconclusive: -39.8% [inhibitor]. With `C#CCOCCOCCOCCNc1nc(N2CCN(C(=O)[C@H](CCCN=C(N)N)n3cc(C(N)[C@@H](C)CC)nn3)CC2)nc(N2CCN(C(=O)[C@H](CCC(=O)O)n3cc([C@@H](N)CO)nn3)CC2)n1` (stereo not given in full) the activity change was inconclusive: -41.5% [inhibitor]. With `CN=c1c([N+](=O)[O-])nn(-c2ccc3c(c2)OCCO3)n1O` the activity change was inconclusive: -70.3% [inhibitor]. For `CC(=O)Cc1nsc(NC(=O)c2ccc(-c3cc(Cl)ccc3Cl)o2)n1`, the activity change was inactive: 2.84%. In the case of `Cn1nc(-c2cccnc2)nc2c(=O)n(C)c(=O)nc1-2`, the activity change was active: -85.7%. In the case of `O=C(Nc1nnc(-c2ccncc2)o1)C1CCCCC1`, the activity change was inactive: -8.01%. For `CCCCS/C(N)=N/N=C/c1cc(C)ccc1O`, the activity change was inconclusive: -34.9% [inhibitor]. With `COC(=O)c1cc(NC(=O)c2cc(C(C)(C)C)nn2Cc2ccc(F)cc2)ccc1N1CCOCC1` the activity change was inconclusive: -53.6% [inhibitor]. For `COc1ccc2nc3cc(Cl)ccc3c(Nc3ccc(O)c(CN4CCN(C)CC4)c3)c2c1`, the activity change was inconclusive: -74.3% [inhibitor]. For `Cc1nnc(N/N=C/c2cccs2)[nH]c1=O`, the activity change was inconclusive: -46.7% [inhibitor]. With `COc1ccc(N=C2C(=O)N3c4c(cccc42)C(C)=CC3(C)C)cc1` the activity change was inconclusive: -31.5% [inhibitor]. For `CCOC(=O)C1=C(C)N=c2s/c(=C\c3ccc(O)c([N+](=O)[O-])c3)c(=O)n2C1c1ccccc1OC` (stereo not given), the activity change was inconclusive: -67.1% [inhibitor]. In the case of `COc1ccc(-c2noc(CN(C)Cc3ccccc3)n2)cc1`, the activity change was inactive: -11%. With `O=C(Cc1ccccc1)NN1C(=O)/C(=C/c2ccccc2C(=O)O)SC1=S` the activity change was inconclusive: -36.6% [inhibitor]. With `CCNc1nc(NCC)nc(N/N=C/c2ccc([N+](=O)[O-])o2)n1` the activity change was active: -82%. With `Cc1cc(C)c(C(=O)CSc2nnc(N)s2)cc1C` the activity change was inactive: -5.89%. In the case of `Cc1ccc(OCC(=O)Nc2ccc(N3CCOCC3)cc2)c([N+](=O)[O-])n1`, the activity change was inconclusive: -33% [inhibitor]. In the case of `Cn1c(N)c(C(=O)COC(=O)c2cc(-c3ccccc3)nc3ccccc23)c(=O)n(Cc2ccccc2)c1=O`, the activity change was inconclusive: -38.4% [inhibitor]. With `C=CCC[C@@H](Cc1ccc(F)cc1)C(=O)OC[C@@H](Cc1c[nH]c2ccccc12)NC(=O)[C@@H](CC=C)CC(=O)N[C@H](CO)Cc1ccccc1` the activity change was inconclusive: -33.1% [inhibitor].

Reference: PubChem BioAssay AID540267 (National Center for Advancing Translational Sciences (NCATS), 2011)
% is set by controls: 0 for no effect and ±100 for the full control effect.
